Measurements reported in patent publication US20130072473A1, “COMPOUNDS FOR TREATING PROTEIN FOLDING DISORDERS” (PROTEOSTASIS THERAPEUTICS, INC., priority 2011, published 2013).
Some results were stated once for a whole list of compounds, not compound by compound.

target: T1, ΔF508-CFTR (Homo sapiens, UniProt P13569, DEL508-508); test: CFTR iodide flux assay (YFP quenching); assay type: cell-based; conditions: 10 μM compound; CFBE41o− cells stably expressing ΔF508-CFTR and halide-sensitive YFP; stimulated 20 min with forskolin and test compounds; indirect measure of CFTR function
T1 construct: expressed in transfected cells; host or cells: CFBE41o- cells
T1 sequence (P13569 with tags, fused parts or gaps DEL508-508): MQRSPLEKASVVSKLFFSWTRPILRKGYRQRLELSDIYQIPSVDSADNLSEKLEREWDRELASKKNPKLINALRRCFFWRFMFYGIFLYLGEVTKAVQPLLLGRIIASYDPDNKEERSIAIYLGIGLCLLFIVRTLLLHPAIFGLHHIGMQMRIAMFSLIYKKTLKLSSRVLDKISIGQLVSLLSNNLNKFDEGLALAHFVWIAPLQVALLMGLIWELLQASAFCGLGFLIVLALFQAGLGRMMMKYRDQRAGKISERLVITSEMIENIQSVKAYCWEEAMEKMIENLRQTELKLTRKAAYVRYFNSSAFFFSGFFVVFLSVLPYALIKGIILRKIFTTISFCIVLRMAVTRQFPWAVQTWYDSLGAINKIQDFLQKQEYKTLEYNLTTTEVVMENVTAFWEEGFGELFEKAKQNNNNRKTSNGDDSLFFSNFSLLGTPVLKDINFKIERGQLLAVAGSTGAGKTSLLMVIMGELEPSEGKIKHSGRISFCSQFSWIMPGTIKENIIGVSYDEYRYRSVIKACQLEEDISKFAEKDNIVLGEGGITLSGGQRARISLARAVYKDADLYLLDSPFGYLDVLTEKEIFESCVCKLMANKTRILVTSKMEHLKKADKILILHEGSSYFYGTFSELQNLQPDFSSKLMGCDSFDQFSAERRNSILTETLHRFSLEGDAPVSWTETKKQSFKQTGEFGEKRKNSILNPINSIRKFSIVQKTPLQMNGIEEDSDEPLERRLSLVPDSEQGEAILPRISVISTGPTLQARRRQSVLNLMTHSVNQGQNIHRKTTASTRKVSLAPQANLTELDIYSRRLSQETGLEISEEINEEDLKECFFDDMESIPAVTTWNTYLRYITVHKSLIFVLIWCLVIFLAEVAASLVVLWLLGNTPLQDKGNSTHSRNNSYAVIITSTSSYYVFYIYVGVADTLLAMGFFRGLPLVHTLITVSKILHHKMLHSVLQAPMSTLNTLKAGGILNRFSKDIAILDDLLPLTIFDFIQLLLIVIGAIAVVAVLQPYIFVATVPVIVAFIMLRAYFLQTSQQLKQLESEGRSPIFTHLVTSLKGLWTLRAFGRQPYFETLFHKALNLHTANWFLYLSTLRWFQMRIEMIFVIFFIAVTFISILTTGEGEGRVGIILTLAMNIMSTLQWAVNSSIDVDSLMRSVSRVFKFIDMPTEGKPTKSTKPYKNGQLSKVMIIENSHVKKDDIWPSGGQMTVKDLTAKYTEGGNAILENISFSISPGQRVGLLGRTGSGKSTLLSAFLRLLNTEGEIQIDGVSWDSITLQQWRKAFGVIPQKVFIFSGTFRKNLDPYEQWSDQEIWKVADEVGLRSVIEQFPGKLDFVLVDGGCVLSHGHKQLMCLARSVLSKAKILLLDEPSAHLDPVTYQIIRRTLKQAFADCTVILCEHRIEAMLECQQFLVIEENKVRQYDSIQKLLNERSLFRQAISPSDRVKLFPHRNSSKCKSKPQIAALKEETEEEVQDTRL

SMILES | Percent Quenching of YFP at 10 μM
CN1CCc2c(sc(NC(=O)C3CC3)c2-c2nc3ccccc3s2)C1.Cl [Example 35, 3-(Benzo[d]thiazol-2-yl)-2-(cyclopropanecarboxamido)-6-methyl-4,5,6,7-tetrahydrothieno[2,3-c]pyridin-6-ium Chloride] | <15%
CCNc1sc2c(c1-c1nc3ccccc3s1)CCN(CC)C2 [Example 44, 3-(Benzo[d]thiazol-2-yl)-6-ethyl-2-(ethylamino)-4,5,6,7-tetrahydrothieno[2,3-c]pyridin-6-ium Carboxyformate] | 15-20%
CC(=O)Nc1sc2c(c1-c1nc3ccccc3s1)CCN(C(C)C)C2 [Example 7, N-(3-(benzo[d]thiazol-2-yl)-6-isopropyl-4,5,6,7-tetrahydrothieno[2,3-c]pyridin-2-yl)acetamide] | >20%
CCC1CCc2c(sc(N)c2-c2nc3ccccc3s2)C1 (stereo not drawn) [Example 65, 3-(Benzo[d]thiazol-2-yl)-6-ethyl-4,5,6,7-tetrahydrobenzo[b]thiophen-2-amine] | <15%
CC(=O)Nc1sc2c(c1-c1nc3ccccc3s1)CCN(C(=O)OC(C)(C)C)C2 [Example 5, tert-butyl 2-acetamido-3-(benzo[d]thiazol-2-yl)-4,5-dihydrothieno[2,3-c]pyridine-6(7H)-carboxylate] | <15%
CCOC(=O)CN1CCc2c(sc(NC(C)=O)c2-c2nc3ccccc3s2)C1 [Example 23, ethyl 2-(2-acetamido-3-(benzo[d]thiazol-2-yl)-4,5-dihydrothieno[2,3-c]pyridin-6(7H)-yl)acetate] | <15%
CCNc1sc2c(c1-c1nc3ccccc3s1)CCNC2 [Example 43, 3-(benzo[d]thiazol-2-yl)-2-(ethylamino)-4,5,6,7-tetrahydrothieno[2,3-c]pyridin-6-ium 2,2,2-trifluoroacetate] | <15%
CC1(C)CCc2c(sc(N)c2-c2nc3ccccc3s2)C1 [Example 80, 3-(benzo[d]thiazol-2-yl)-6,6-dimethyl-4,5,6,7-tetrahydrobenzo[b]thiophen-2-amine] | <15%
CC(=O)Nc1sc2c(c1-c1nc3ccccc3s1)CCN(CC(C)C)C2 [Example 21] | <15%
CC[n+]1ccc2c(-c3nc4ccccc4s3)c(NC(C)=O)sc2c1 [Example 56, 2-acetamido-3-(benzo[d]thiazol-2-yl)-6-ethylthieno[2,3-c]pyridin-6-ium trifluoromethanesulfonate] | 15-20%
CC(=O)Nc1cc2c(cc1-c1nc3ccccc3s1)CNCC2 [Example 76, 6-acetamido-7-(benzo[d]thiazol-2-yl)-1,2,3,4-tetrahydroisoquinolin-2-ium 2,2,2-trifluoroacetate] | <15%
CCN1CCc2c(sc(NC(=O)c3ccccc3Cl)c2C(N)=O)C1 [Example 62, 2-(2-Chlorobenzamido)-6-ethyl-4,5,6,7-tetrahydrothieno[2,3-c]pyridine-3-carboxamide] | <15%
CCN1CCc2c(sc(NC(C)=O)c2-c2nc3ccc(C)cc3s2)C1 [Example 16] | >20%
CC(=O)Nc1sc2c(c1-c1nc3ccccc3s1)CCC(C)(C)C2 [Example 81, N-(3-(Benzo[d]thiazol-2-yl)-6,6-dimethyl-4,5,6,7-tetrahydrobenzo[b]thiophen-2-yl)acetamide] | <15%
CC(=O)Nc1sc2c(c1-c1nc3ccccc3s1)CCN(C(F)(F)F)C2 [Example 10, N-(3-(Benzo[d]thiazol-2-yl)-6-(trifluoromethyl)-4,5,6,7-tetrahydrothieno[2,3-c]pyridin-2-yl)acetamide] | 15-20%
CCN1CCc2c(sc(NS(C)(=O)=O)c2-c2nc3ccccc3s2)C1 [Example 37, N-(3-(Benzo[c]thiazol-2-yl)-6-ethyl-4,5,6,7-tetrahydrothieno[2,3-c]pyridin-2-yl)methanesulfonamide] | <15%
CN1CCc2c(sc(NC(=O)C3CC3)c2-c2nc3ccccc3s2)C1 [Example 33, N-(3-(benzo[d]thiazol-2-yl)-6-methyl-4,5,6,7-tetrahydrothieno[2,3-c]pyridin-2-yl)cyclopropanecarboxamide] | <15%
CCN1CCCc2c(sc(NC(C)=O)c2-c2nc3ccccc3s2)C1 [Example 60, 2-Acetamido-3-(benzo[d]thiazol-2-yl)-7-ethyl-5,6,7,8-tetrahydro-4H-thieno[2,3-c]azepin-7-ium Carboxyformate] | 15-20%
CC(=O)Nc1sc2ccccc2c1-c1nc2ccccc2s1 [Example 79, N-(3-(benzo[d]thiazol-2-yl)benzo[b]thiophen-2-yl)acetamide] | <15%
CC(=O)Nc1sc2c(c1-c1nc3ccccc3s1)CCNC2 [Example 6, 2-acetamido-3-(benzo[c]thiazol-2-yl)-4,5,6,7-tetrahydrothieno[2,3-c]pyridin-6-ium 2,2,2-trifluoroacetate] | >20%
CC(=O)Nc1sc2c(c1-c1nc3cc(C)ccc3s1)CCNC2 [Example 13] | >20%
CN1CCc2c(sc(NC(=O)c3ccccc3)c2-c2nc3ccccc3s2)C1 [Example 38] | >20%
CC(=O)Nc1sc2c[n+]([O-])ccc2c1-c1nc2ccccc2s1 [Example 57, 2-acetamido-3-(benzo[d]thiazol-2-yl)thieno[2,3-c]pyridine 6-oxide] | <15%

SMILES | Percent Quenching of YFP at 10 μM
CCN1CCc2c(sc(NC(C)=O)c2-c2nc3cc(Cl)ccc3s2)C1 [Example 9, N-(3-(5-Chlorobenzo[d]thiazol-2-yl)-6-ethyl-4,5,6,7-tetrahydrothieno[2,3-c]pyridin-2-yl)acetamide] | 15-20%
CNC(=O)CN1CCc2c(sc(NC(C)=O)c2-c2nc3ccccc3s2)C1.Cl [Example 45, 2-Acetamido-3-(benzo[d]thiazol-2-yl)-6-(2-(methylamino)-2-oxoethyl)-4,5,6,7-tetrahydrothieno[2,3-c]pyridin-6-ium Chloride] | <15%
CCN1CCc2c(sc(NC(=O)C(C)C)c2-c2nc3ccccc3s2)C1 [Example 36, 3-(Benzo[d]thiazol-2-yl)-6-ethyl-2-isobutyramido-4,5,6,7-tetrahydrothieno[2,3-c]pyridin-6-ium Chloride] | >20%
CC(=O)Nc1sc2c(c1-c1nc3ccccc3s1)CCNC2=O [Example 67, N-(3-(Benzo[d]thiazol-2-yl)-7-oxo-4,5,6,7-tetrahydrothieno[2,3-c]pyridin-2-yl)acetamide] | <15%
CCN1CCc2c(sc(NC(C)=O)c2-c2nc3ccc(F)cc3s2)C1 [Example 18] | >20%
Nc1sc2c(c1-c1nc3ccccc3s1)CCCC2 [Example 77, 3-(benzo[d]thiazol-2-yl)-4,5,6,7-tetrahydrobenzo[b]thiophen-2-aminium chloride] | <15%
CC(C)C(=O)Nc1sc2c(c1-c1nc3ccccc3s1)CCNC2 [Example 39] | <15%
NC(=O)c1oc2ccccc2c1N [Example 84, 3-Aminobenzofuran-2-carboxamide] | <15%
CCN1Cc2sc(NC(C)=O)c(-c3nc4ccccc4s3)c2C1.Cl [Example 71, 2-acetamido-3-(benzo[d]thiazol-2-yl)-5-ethyl-5,6-dihydro-4H-thieno[2,3-c]pyrrol-5-ium chloride] | <15%
CCOC(=O)c1oc2ccccc2c1-c1nc2ccccc2s1 [Example 49, Ethyl 3-(Benzo[d]thiazol-2-yl)benzofuran-2-carboxylate] | <15%
CC(=O)Nc1sc2c(c1-c1nc3cc(C(F)(F)F)ccc3s1)CCNC2 [Example 12] | <15%
CCN1CCc2cc(NC(C)=O)sc2C1 [Example 63, N-(6-Ethyl-4,5,6,7-tetrahydrothieno[2,3-c]pyridin-2-yl)acetamide] | <15%
CC(=O)Nc1sc2c(c1-c1nc3ccccc3s1)CCOC2 [Example 48, N-(3-(Benzo[d]thiazol-2-yl)-5,7-dihydro-4H-thieno[2,3-c]pyran-2-yl)acetamide] | <15%
O=C(Nc1sc2c(c1-c1nc3ccccc3s1)CCNC2)c1ccccc1 [Example 40] | >20%
COCCN1CCc2c(sc(NC(C)=O)c2-c2nc3ccccc3s2)C1 [Example 25] | <15%
CC[N+]1([O-])CCc2c(sc(NC(C)=O)c2-c2nc3ccccc3s2)C1 (stereo not drawn) [Example 51, 2-Acetamideo-3-(benzo[d]thiazol-2-yl)-6-ethyl-4,5,6,7-tetrahydrothieno[2,3-c]pyridine 6-oxide] | 15-20%
CC(=O)Nc1sc2c(c1-c1nc3ccccc3s1)CCCN(C)C2 [Example 61, 2-Acetamido-3-(benzo[d]thiazol-2-yl)-7-methyl-5,6,7,8-tetrahydro-4H-thieno[2,3-c]azepin-7-ium Carboxyformate] | 15-20%
CC(=O)Nc1sc2c(c1-c1nc3ccc(F)cc3s1)CCNC2 [Example 17] | >20%
CC(=O)Nc1sc2c(c1-c1nc3ccccc3s1)CCN(C(C)=O)C2 [Example 82, N-(6-acetyl-3-(benzo[d]thiazol-2-yl)-4,5,6,7-tetrahydrothieno[2,3-c]pyridin-2-yl)acetamide] | <15%
CC(=O)Nc1sc2c(c1-c1nc3ccc(C)cc3s1)CCNC2 [Example 15] | >20%
CC(=O)Nc1sc2c(c1-c1nc3ccccc3s1)CCN(CC(=O)O)C2.Cl [Example 46, 2-acetamido-3-(benzo[d]thiazol-2-yl)-6-(carboxymethyl)-4,5,6,7-tetrahydrothieno[2,3-c]pyridin-6-ium chloride] | <15%
CC(=O)Nc1sc2c(c1-c1nc3ccccc3s1)CCN(CCN(C)C)C2 [Example 26] | <15%
